T1: low-moderate affinity dimeric IL-2R (IL-2Rβ and IL-2Rγ) on HEK-Blue CD122/CD132 cells (UniProt P14784 27-551; P31785 23-369, limits assumed)
T1 sequence (looked up) 1: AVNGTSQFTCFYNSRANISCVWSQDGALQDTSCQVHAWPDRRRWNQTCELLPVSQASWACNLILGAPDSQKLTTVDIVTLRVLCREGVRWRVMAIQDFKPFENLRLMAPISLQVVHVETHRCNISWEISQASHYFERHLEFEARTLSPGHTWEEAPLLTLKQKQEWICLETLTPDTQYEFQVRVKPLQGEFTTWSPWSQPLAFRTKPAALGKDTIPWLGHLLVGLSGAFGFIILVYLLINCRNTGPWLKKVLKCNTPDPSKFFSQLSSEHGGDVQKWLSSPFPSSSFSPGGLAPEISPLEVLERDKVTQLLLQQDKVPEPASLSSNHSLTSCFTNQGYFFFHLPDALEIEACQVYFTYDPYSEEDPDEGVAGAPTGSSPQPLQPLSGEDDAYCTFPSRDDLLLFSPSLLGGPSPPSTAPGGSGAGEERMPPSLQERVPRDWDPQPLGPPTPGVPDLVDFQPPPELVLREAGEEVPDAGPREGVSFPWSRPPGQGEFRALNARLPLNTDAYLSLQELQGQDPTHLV
T1 sequence (looked up) 2: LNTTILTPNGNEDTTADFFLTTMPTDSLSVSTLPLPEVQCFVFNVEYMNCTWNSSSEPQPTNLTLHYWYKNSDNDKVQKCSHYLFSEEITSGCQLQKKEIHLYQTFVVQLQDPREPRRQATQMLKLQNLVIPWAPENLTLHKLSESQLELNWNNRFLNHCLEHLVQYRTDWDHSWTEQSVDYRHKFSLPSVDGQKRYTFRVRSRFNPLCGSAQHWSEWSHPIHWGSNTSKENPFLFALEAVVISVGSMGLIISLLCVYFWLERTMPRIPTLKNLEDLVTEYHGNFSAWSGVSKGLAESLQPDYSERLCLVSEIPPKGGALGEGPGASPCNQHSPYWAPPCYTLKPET

T2: high affinity trimeric IL-2R (IL-2Rα, IL-2Rβ and IL-2Rγ) on HEK-Blue IL-2 cells (UniProt P01589 22-272; P14784 27-551; P31785 23-369)
T2 sequence (looked up) 1: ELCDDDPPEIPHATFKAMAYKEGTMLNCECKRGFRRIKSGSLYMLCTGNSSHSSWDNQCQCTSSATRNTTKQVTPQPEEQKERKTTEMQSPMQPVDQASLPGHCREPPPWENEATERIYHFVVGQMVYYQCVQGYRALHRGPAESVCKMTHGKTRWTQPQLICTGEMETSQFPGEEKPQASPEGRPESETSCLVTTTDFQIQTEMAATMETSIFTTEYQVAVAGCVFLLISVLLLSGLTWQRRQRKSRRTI
T2 sequence (looked up) 2: T1 sequence (looked up) 1
T2 sequence (looked up) 3: T1 sequence (looked up) 2

B1: pNOVI V2K K91_E8_IL-2Rα_1_238_IL-2_21_153_CM1 VKCK IL-2Rβ_1_239_CM1_VHCH (antibody, human IgG1, kappa)
light: ELCDDDPPEIPHATFKAMAYKEGTMLNCECKRGFRRIKSGSLYMLCTGNSSHSSWDNQCQCTSSATRNTTKQVTPQPEEQKERKTTEMQSPMQPVDQASLPGHCREPPPWENEATERIYHFVVGQMVYYQCVQGYRALHRGPAESVCKMTHGKTRWTQPQLICTGEMETSQFPGEEKPQASPEGRPESETSCLVTTTDFQIQTEMAATMETSIFTTEGGGGSGGGGS[about 150 residues left out]GGGGSVHMPLGFLGPGGSDIQMTQSPSSLSASVGDRVTITCNVDQVIANWLNWYQQKPGKAPKLLIYAASSLQSGVPSRFSGSGSGTDFTLTISSLQPEDFATYYCQQMHPRAPKQFGQGTKVEIKRTVAAPSVFIFPPSDEQLKSGTASVVCLLNNFYPREAKVQWKVDNALQSGNSQESVTEQDSKDSTYSLSSTLTLSKADYEKHKVYACEVTHQGLSSPVTKSFNRGEC
heavy: AVNGTSQFTCFYNSRANISCVWSQDGALQDTSCQVHAWPDRRRWNQTCELLPVSQASWACNLILGAPDSQKLTTVDIVTLRVLCREGVRWRVMAIQDFKPFENLRLMAPISLQVVHVETHRCNISWEISQASHYFERHLEFEARTLSPGHTWEEAPLLTLKQKQEWICLETLTPDTQYEFQVRVKPLQGEFTTWSPWSQPLAFRTKPAALGKDGGGGSVHMPLGFLGPGGS[about 120 residues left out][about 100 residues left out][human IgG1 Fc left out]
notes: masked K91 fusion, uncleaved; also called n676; construct No 676
B2: pNOVI V2K K91_IL-2 CM1_VKCK_IL-2Rα_CM1_VHCH (antibody, human IgG1, kappa)
light: [about 150 residues left out]GGGGSVHMPLGFLGPGGSDIQMTQSPSSLSASVGDRVTITCNVDQVIANWLNWYQQKPGKAPKLLIYAASSLQSGVPSRFSGSGSGTDFTLTISSLQPEDFATYYCQQMHPRAPKQFGQGTKVEIKRTVAAPSVFIFPPSDEQLKSGTASVVCLLNNFYPREAKVQWKVDNALQSGNSQESVTEQDSKDSTYSLSSTLTLSKADYEKHKVYACEVTHQGLSSPVTKSFNRGEC
heavy: ELCDDDPPEIPHATFKAMAYKEGTMLNCECKRGFRRIKSGSLYMLCTGNSSHSSWDNQCQCTSSATRNTTKQVTPQPEEQKERKTTEMQSPMQPVDQASLPGHCREPPPWENEATERIYHFVVGQMVYYQCVQGYRALHRGPAESVCKMTHGKTRWTQPQLICTGEMETSQFPGEEKPQASPEGRPESETSCLVTTTDFQIQTEMAATMETSIFTTEGGGGSVHMPLGFLGPGGS[about 120 residues left out][about 100 residues left out][human IgG1 Fc left out]
notes: masked K91 fusion, uncleaved; also called n41; construct No 41
B3: pNOVI V2K K91_E6 NO LIN_IL-2Rα_1_238_CM1_IL-2_21_153_CM1 VKCK IL-2Rβ_1_239_CM1_VHCH (antibody, human IgG1, kappa)
light: ELCDDDPPEIPHATFKAMAYKEGTMLNCECKRGFRRIKSGSLYMLCTGNSSHSSWDNQCQCTSSATRNTTKQVTPQPEEQKERKTTEMQSPMQPVDQASLPGHCREPPPWENEATERIYHFVVGQMVYYQCVQGYRALHRGPAESVCKMTHGKTRWTQPQLICTGEMETSQFPGEEKPQASPEGRPESETSCLVTTTDFQIQTEMAATMETSIFTTEGGGGSVHMGGSGGGGSGGGGS[about 150 residues left out]GGGGSGGGGSGGGGSGGSDIQMTQSPSSLSASVGDRVTITCNVDQVIANWLNWYQQKPGKAPKLLIYAASSLQSGVPSRFSGSGSGTDFTLTISSLQPEDFATYYCQQMHPRAPKQFGQGTKVEIKRTVAAPSVFIFPPSDEQLKSGTASVVCLLNNFYPREAKVQWKVDNALQSGNSQESVTEQDSKDSTYSLSSTLTLSKADYEKHKVYACEVTHQGLSSPVTKSFNRGEC
heavy: AVNGTSQFTCFYNSRANISCVWSQDGALQDTSCQVHAWPDRRRWNQTCELLPVSQASWACNLILGAPDSQKLTTVDIVTLRVLCREGVRWRVMAIQDFKPFENLRLMAPISLQVVHVETHRCNISWEISQASHYFERHLEFEARTLSPGHTWEEAPLLTLKQKQEWICLETLTPDTQYEFQVRVKPLQGEFTTWSPWSQPLAFRTKPAALGKDGGGGSGGGGSGGGGSGGS[about 120 residues left out][about 100 residues left out][human IgG1 Fc left out]
notes: control without cleavable linker; also called n860; construct No 860
B4: pNOVI V2K K91_E8 NO LIN_IL-2Rα_1_238_IL-2_21_153_CM1 VKCK IL-2Rβ_1_239_CM1_VHCH (antibody, human IgG1, kappa)
light: ELCDDDPPEIPHATFKAMAYKEGTMLNCECKRGFRRIKSGSLYMLCTGNSSHSSWDNQCQCTSSATRNTTKQVTPQPEEQKERKTTEMQSPMQPVDQASLPGHCREPPPWENEATERIYHFVVGQMVYYQCVQGYRALHRGPAESVCKMTHGKTRWTQPQLICTGEMETSQFPGEEKPQASPEGRPESETSCLVTTTDFQIQTEMAATMETSIFTTEGGGGSVHMGS[about 150 residues left out]GGGGSGGGGSGGGGSGGSDIQMTQSPSSLSASVGDRVTITCNVDQVIANWLNWYQQKPGKAPKLLIYAASSLQSGVPSRFSGSGSGTDFTLTISSLQPEDFATYYCQQMHPRAPKQFGQGTKVEIKRTVAAPSVFIFPPSDEQLKSGTASVVCLLNNFYPREAKVQWKVDNALQSGNSQESVTEQDSKDSTYSLSSTLTLSKADYEKHKVYACEVTHQGLSSPVTKSFNRGEC
heavy: AVNGTSQFTCFYNSRANISCVWSQDGALQDTSCQVHAWPDRRRWNQTCELLPVSQASWACNLILGAPDSQKLTTVDIVTLRVLCREGVRWRVMAIQDFKPFENLRLMAPISLQVVHVETHRCNISWEISQASHYFERHLEFEARTLSPGHTWEEAPLLTLKQKQEWICLETLTPDTQYEFQVRVKPLQGEFTTWSPWSQPLAFRTKPAALGKDGGGGSGGGGSGGGGSGGS[about 120 residues left out][about 100 residues left out][human IgG1 Fc left out]
notes: control without cleavable linker; also called n900; construct No 900

Biological target: T1, low-moderate affinity dimeric IL-2R …
Experiment: cell-based or functional assay

Binder	EC50 before cleavage IL-2, HEK Blue IL-2 βγ reporter assay [nM]	EC50 ratio (BC/AC), HEK Blue IL-2 βγ reporter assay
B1	0.18	6
B2	0.04	3

Biological target: T3, CD47 at the surface of Peak cells (human, UniProt Q08722)
T3 construct: whole, on cells; also called cell surface CD47
Experiment: flow cytometry, Peak cells, before cleavage

Binder	EC50 [nM]
B1	56.7
B2	5.5
B3	22.5
B4	55.3

Biological target: T4, His-tagged human CD47 (human, UniProt Q08722 fragment, limits assumed)
T4 construct: loaded on HIS1K biosensors at 2.5 µg/mL; also called target antigen; not shown: His tag
Experiment: BLI, His-CD47 on HIS1K sensor, antibody 15 µg/mL

Binder	Binding before cleavage (BLI) [nm]
B1	0.6
B2	0.9
B3	0.5
B4	0.5

Biological target: T3, CD47 at the surface of Peak cells
Experiment: flow cytometry, Peak cells; EC50 before / EC50 after cleavage

Binder	Binding recovery (BC/AC)
B1	57
B2	31
B3	1
B4	1

Biological target: T3, CD47 at the surface of Peak cells
Experiment: flow cytometry, Peak cells, after MMP-9 treatment (non-cleavable control)
Protocol: Binding activity of antibody-cytokine/receptor fusions before and after cleavage was also evaluated by flow cytometry. Peak cells derived from HEK 293 which are human cells expressing CD47 were used to evaluate masking efficacy and binding recovery to CD47 by flow cytometry. Peak cells were diluted in cold FACS buffer (PBS, 2% BSA) to 1.2×10⁶ cells/mL. 3×10⁵ cells/well were added in a 96 well V-bottom plate. The plate was then centrifugated for 5 min at 1300 rpm, 4° C. Supernatants were removed and cells were washed twice using FACS buffer. A serial dilution of antibody-cytokine/receptor fusions previously digested with MMP-9 or not digested as described above was prepared in FACS buffer. An irrelevant antibody was included. Then, 150 μL of each diluted antibody were added in corresponding well and incubated for 30 min at 4° C. Cells were washed twice with FACS buffer and 100 μL of a mouse anti human Fc-PE conjugated secondary antibody were added and the plate was incubated for 20 min at 4° C. Cells were then washed twice with FACS buffer. Finally, 150 μL of SYTOX blue dead cell stain (ThermoFisher) diluted to 1/5000 in FACS buffer were added before detection by flow cytometry with Cytoflex (Beckman Coulter). Acquisition was performed with 10000 events for each well. Data were analyzed by FlowJo software.

Binder	EC50 [nM]
B3	20.7
B4	47

Biological target: T2, high affinity trimeric IL-2R (IL-2Rα, …)
Experiment: cell-based or functional assay

Binder	EC50 before cleavage IL-2, HEK Blue IL-2 αβγ reporter assay [nM]	EC50 ratio (BC/AC), HEK Blue IL-2 αβγ reporter assay	EC50 after cleavage IL-2, HEK Blue IL-2 αβγ reporter assay (non-cleavable control after MMP-9 treatment) [nM]
B1	0.28	6	
B2	0.07	4	
B3	0.25	2	0.11
B4	0.28	3	0.08
